Measured values taken from patent publication US20220372160A1 (published 2022).

Target: T1, recombinant human CD39 (human, UniProt P49961 38-478)
T1 chain: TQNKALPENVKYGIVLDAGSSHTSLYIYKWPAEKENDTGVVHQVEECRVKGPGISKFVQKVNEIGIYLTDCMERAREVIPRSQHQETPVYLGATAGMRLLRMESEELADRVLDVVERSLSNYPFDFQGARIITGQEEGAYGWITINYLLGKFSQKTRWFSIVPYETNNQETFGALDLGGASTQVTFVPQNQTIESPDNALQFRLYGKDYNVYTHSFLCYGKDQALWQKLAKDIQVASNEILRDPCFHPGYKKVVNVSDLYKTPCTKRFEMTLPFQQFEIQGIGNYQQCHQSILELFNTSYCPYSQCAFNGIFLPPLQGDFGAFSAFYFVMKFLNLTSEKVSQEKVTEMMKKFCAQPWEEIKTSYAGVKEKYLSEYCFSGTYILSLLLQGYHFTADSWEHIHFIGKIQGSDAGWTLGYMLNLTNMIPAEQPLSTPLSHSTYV
Experiment: BLI (ForteBio); IgG, monovalent

B1: Clone #5 (antibody, V domains shown)
VH: not shown
VL: DIQMTQSPSSLSASVGDRVTITCQASQDISNYLNWYQQKPGKAPKLLIYDASNLATGVPSRFSGSGSGTDFTFTISSLQPEDIATYYCQQLYHLPITFGGGTKVEIK
- Kd: 29.6 nM
